# Screen size: about 310,000 compounds; about 2,200 (0.71%) showed an effect of 50% or more. The effect is printed as a negative number. The list shows a part of the results.
# Target: human ether-à-go-go-related gene (hERG) potassium channel (human, UniProt Q12809)
# Assay: primary screen, population patch clamp on CHO cells stably expressing hERG
# human ether-à-go-go-related gene (hERG) potassium channel, sequence (Q12809 whole entry, looked up): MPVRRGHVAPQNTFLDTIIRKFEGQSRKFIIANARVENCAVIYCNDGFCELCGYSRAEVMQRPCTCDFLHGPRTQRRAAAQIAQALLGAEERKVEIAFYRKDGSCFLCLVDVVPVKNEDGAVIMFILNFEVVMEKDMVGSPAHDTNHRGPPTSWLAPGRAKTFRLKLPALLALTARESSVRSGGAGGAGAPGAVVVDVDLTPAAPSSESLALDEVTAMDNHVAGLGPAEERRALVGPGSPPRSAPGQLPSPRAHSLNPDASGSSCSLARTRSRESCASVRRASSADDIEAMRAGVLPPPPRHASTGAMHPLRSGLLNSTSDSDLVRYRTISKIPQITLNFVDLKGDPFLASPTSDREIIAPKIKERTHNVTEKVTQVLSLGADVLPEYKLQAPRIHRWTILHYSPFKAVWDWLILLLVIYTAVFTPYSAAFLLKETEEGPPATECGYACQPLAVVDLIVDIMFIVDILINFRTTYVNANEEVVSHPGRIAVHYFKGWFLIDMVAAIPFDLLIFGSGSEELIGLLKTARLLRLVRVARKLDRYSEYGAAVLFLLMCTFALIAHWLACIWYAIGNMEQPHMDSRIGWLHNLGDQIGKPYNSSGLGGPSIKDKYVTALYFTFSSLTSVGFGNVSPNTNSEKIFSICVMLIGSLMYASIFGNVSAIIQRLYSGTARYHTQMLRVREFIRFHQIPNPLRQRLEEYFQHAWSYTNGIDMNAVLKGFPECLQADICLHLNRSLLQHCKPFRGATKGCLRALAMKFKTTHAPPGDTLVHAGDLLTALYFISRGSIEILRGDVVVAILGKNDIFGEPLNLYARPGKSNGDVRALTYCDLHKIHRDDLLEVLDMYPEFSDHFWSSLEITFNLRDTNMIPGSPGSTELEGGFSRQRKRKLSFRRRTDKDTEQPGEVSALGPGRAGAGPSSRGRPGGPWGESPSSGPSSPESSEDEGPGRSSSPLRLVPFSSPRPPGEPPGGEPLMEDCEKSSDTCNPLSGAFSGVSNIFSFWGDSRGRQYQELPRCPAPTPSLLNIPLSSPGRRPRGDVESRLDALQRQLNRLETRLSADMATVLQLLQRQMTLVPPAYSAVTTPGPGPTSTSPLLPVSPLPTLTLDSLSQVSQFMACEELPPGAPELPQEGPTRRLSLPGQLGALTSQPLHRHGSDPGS
row,SMILES,"hERG current change (%, negative = inhibition) at 1uM [%]"
1,O=C(c1cc(-c2cccs2)on1)N1CCN(c2ccccc2)CC1,10.7
2,CCOC(=O)c1cnn(-c2ncnc3sc(CC)cc23)c1N,13.8
3,Cc1ccc(C(=O)COC(=O)c2ccc(O)cc2)cc1,14.9
4,Cc1ccccc1NC(=O)c1cccc(OCc2c(C)noc2C)c1,-8.17
5,CCCS(=O)(=O)N1CCC(C(=O)NCCc2ccc(C)cc2)CC1,-2.21
6,CN(CCOc1ccc(F)cc1)Cc1ccccc1.O=C(O)C(=O)O,18.7
7,Cc1nn(S(=O)(=O)c2cccc([N+](=O)[O-])c2)c(C)c1S(=O)(=O)N1CCOCC1,12.9
8,Cn1c(SCc2nc3cc(C(=O)O)ccc3c(=O)[nH]2)nnc1C(F)(F)F,6.49
9,Cc1cc(C)cc(NC(=O)COC(=O)c2ccc3c(c2)OCCO3)c1,5.92
10,COc1ccc(NC(=S)NNS(=O)(=O)c2ccc3ccccc3c2)c(OC)c1,13.6
11,Cc1cc(C(=O)OCC(=O)Nc2ccc(F)cc2F)c(C)n1C1CC1,10.5
12,Cc1ccc(-c2noc(C3CCCN(C(=O)C4CCCCC4)C3)n2)o1 (stereo not drawn),6.66
13,COc1cc(/C=C2/SC(=Nc3ccc(O)cc3)NC2=O)cc(OC)c1O,10.9
14,CC(C)C(=O)N(Cc1ccccc1)S(=O)(=O)c1ccc2c(c1)oc(=O)n2C,-2.14
15,Cl.c1coc(Cn2nnnc2CN2CCN(C3CCCC3)CC2)c1,7.37
16,CC(C)[C@@H]1C=C(C(=O)O)O[C@H](OCCCCO)C1,9.78
17,COc1cc(C(=O)NCCOc2ccc(Cl)cc2)ccc1OCc1c(C)noc1C,3.61
18,C/C(=N\O)C(C)Oc1ccc(Cl)cc1 (stereo not drawn),0.586
19,O=C(CCC1CCCCC1)Nc1ccc(S(=O)(=O)Nc2nccs2)cc1,-3.5
20,CC1(C)CC(NC(=O)C23CCC(C)(C(=O)C2=O)C3(C)C)CC(C)(C)N1 (stereo not drawn),9.67
21,CN1CCN(c2ccc(S(=O)(=O)N3CCCCC3)cc2NC(=O)c2ccc(F)cc2F)CC1,-31.9
22,Cc1ccc(-c2nnn(CCC(=O)N3CCCCC3C)n2)cc1 (stereo not drawn),0.0185
23,Cc1ccc2nc(SCC(=O)Nc3cc(C)on3)nc(=O)n2c1,18.6

row,SMILES,"hERG current change (%, negative = inhibition) at 1uM [%]"
1,CCOC(=O)CSC1=C(C#N)C(c2ccc(C)o2)CC(=O)N1 (stereo not drawn),12.5
2,N#CC12CCCCC1CC1CCCCC1(C#N)N2N (stereo not drawn),10.8
3,COc1ccc(C(c2c(C)n(C)n(-c3ccccc3)c2=O)c2c(C)n(C)n(-c3ccccc3)c2=O)cc1O,13.6
4,COc1cccc(C(C(=O)NC(C)(C)C)N(Cc2ccc(C)cc2)C(=O)CCC(=O)Nc2cc(C)on2)c1OC (stereo not drawn),8.21
5,O=C(/C=C/c1ccc(F)cc1)NC(=S)N1CCN(c2ccccn2)CC1,7.5
6,Cc1ccc(C)c(N(C(=O)CCC(=O)Nc2cc(C)on2)C(C(=O)NC2CCCC2)c2ccco2)c1 (stereo not drawn),13.3
7,Cc1ccc(OCC(=O)OC(C)CN(C)Cc2ccccc2)cc1.Cl (stereo not drawn),8.2
8,COC(=O)/C(NC(C)=O)=C(\C)c1ccc(Cl)cc1,8.69
9,O=C(NNc1ccc([N+](=O)[O-])cc1)Nc1ccccc1,-3.62
10,CCc1nnc(NC(=O)CSc2nnc(-c3ccco3)n2CCOC)s1,9.17
11,COc1cccc(NC(=O)C2C3C=CC4(O3)C2C(=O)N(CCCN2CCC(C)CC2)C4C(=O)NC2CCCCC2)c1 (stereo not drawn),12.4
12,COc1ccc(CCNC(=O)C(=O)NCC2OCCN2S(=O)(=O)c2ccc(F)cc2)cc1OC (stereo not drawn),2.94
13,CC1CCN(CC(=O)N2CC(=O)Nc3ccccc32)CC1,17
14,Cc1cc2occ(CC(=O)O)c2cc1C,8.08
15,COc1ccc(/C=C/C(=O)OCC(=O)NC2CCCC(C)C2C)cc1S(=O)(=O)N1CCOCC1 (stereo not drawn),16.9
16,Cc1ccc(OCC(O)Cn2c3ccccc3c3ccccc32)cc1 (stereo not drawn),16.8
17,O=C(CN1CCCC1)OCCCC1CCCCC1,9.53
18,N/C(=N\OC(=O)COc1cc(Cl)c(Cl)cc1Cl)c1ccccn1,19.6
19,CCOC(=O)C1=C(CN2CCCCC2)NC(=O)NC1c1cc(C)ccc1C (stereo not drawn),8
20,Cn1ncc(C#N)c1/N=C/N1CCCCCC1,9.23
21,COc1ccc(S(=O)(=O)N2CCOC2CNC(=O)C(=O)NCCc2c[nH]c3ccccc23)cc1 (stereo not drawn),0.107
22,Cc1c(Cl)c([N+](=O)[O-])nn1CC(=O)NCc1ccco1,15.3
